In all, about 220,000 compounds went through this assay and about 16,000 (7.3%) were called active. The inconclusive results got no clear call from the source; some entries with a clear call stand among them for comparison. The call rests on the fitted dose curve; in most records, active means well fitted inhibition curve with a large enough effect (not every such curve was filed as active); inconclusive means small, poorly fitted or top-dose-only effect, or another doubt; inactive means no such curve, though single readings can be large or run the other way. A potency beside an inconclusive call is a rough fit, not a confirmed value.
Target: Aldehyde dehydrogenase 1A1 (Homo sapiens) (UniProt P00352)
Assay: qHTS Assay for Inhibitors of Aldehyde Dehydrogenase 1 (ALDH1A1);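 on activity, negative = inhibition: plate controls were no enzyme wells and a reference inhibitor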
Details: Purified ALDH1A1, NADH fluorescence, propionaldehyde substrate; series mostly up to 75.3 µM; activity, negative = inhibition: at the top concentration
Potency means the concentration at half of the fitted maximal effect; tags describe the fitted curve by direction and shape.

UniProt P00352, sequence (P00352 whole entry, looked up): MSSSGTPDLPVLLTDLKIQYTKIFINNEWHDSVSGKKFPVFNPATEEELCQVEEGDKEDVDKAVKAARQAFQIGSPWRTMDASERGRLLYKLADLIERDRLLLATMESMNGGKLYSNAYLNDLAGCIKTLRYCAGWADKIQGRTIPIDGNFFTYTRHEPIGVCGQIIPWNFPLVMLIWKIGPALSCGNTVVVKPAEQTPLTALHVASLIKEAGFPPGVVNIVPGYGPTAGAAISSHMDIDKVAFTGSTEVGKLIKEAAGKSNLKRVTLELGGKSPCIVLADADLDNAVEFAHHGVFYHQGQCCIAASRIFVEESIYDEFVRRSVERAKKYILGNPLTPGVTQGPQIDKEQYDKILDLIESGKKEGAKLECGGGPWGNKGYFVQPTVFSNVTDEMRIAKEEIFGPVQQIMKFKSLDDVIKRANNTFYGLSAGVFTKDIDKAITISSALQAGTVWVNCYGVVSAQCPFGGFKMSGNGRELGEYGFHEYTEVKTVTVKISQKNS

Potency, active:
CC/C=C/C/C=C/C/C=C/CCCCCCCC(=O)OCC 1.12 µM
CC1(C)CC(=O)C2=C(C1)N(c1ccc(F)cc1)C(=O)NC2(C(F)(F)F)C(F)(F)F 10 µM
O=C1CC(Sc2nnnn2C2CCCCC2)C(=O)N1c1ccccc1 (stereo not given) 3.55 µM
COc1nsnc1NS(=O)(=O)c1ccc(NC(=S)NC(=O)c2cccnc2)cc1 20 µM
COc1ccc(OC)c(NC(=O)CSc2ccc3ccccc3c2)c1 11.2 µM
CCOc1ccc(NC(=S)N(CCN2CCOCC2)Cc2ccc3c(c2)CCCN3CC)cc1 12.6 µM

Potency, inactive:
O=C1NCN(c2ccccc2)C12CCN(CCCC(c1ccc(F)cc1)c1ccc(F)cc1)CC2

Potency, inconclusive:
CN(C)CCNC(=O)CNC(=S)N(Cc1ccccc1)Cc1ccccc1F 35.5 µM [inhibitor, single point]
N#CCCN1CCN(Cc2cc(-c3ccccc3)ccc2O)CC1 18.9 µM [inhibitor, single point]
CC(C)(C)c1cc(C(=O)NN)n(Cc2ccc(F)cc2)n1 22.4 µM [inhibitor, partial curve]
CC(=O)N1CCN(C2c3cccc4cccc(c34)C2NS(=O)(=O)c2ccccc2)CC1 (stereo not given) 35.5 µM [inhibitor, single point]
CCOC(=O)C1CCN(c2cc(C)nc3ccc(OC)cc23)CC1 22.4 µM [inhibitor, single point]
O=C(c1cccc(C(=O)N2CCN(c3ccccc3F)CC2)c1)N1CCN(c2ccccc2F)CC1 25.1 µM [inhibitor, single point]
CN(Cc1c(F)cccc1Cl)c1ccc(S(=O)(=O)N2CCOCC2)cn1 20 µM [inhibitor, partial curve]
O=S(=O)(c1ccccc1)N1CCSC1c1ccco1 (stereo not given) 39.8 µM [inhibitor, single point]
O=C1CCCC2=C1C(c1cccs1)Nc1ccc3ncccc3c12 (stereo not given) 25.1 µM [inhibitor, partial curve]
O=C(COc1ccc(Cl)cc1)Nc1cnn(Cc2c(Cl)cccc2Cl)c1 39.8 µM [inhibitor, single point]
CC(C)C1NC(C(=O)O)Cc2c1[nH]c1ccccc21 (stereo not given) 25.1 µM [inhibitor, partial curve]
Cc1ccc(S(=O)(=O)Nc2ccc(N3CCOCC3)cc2)cc1[N+](=O)[O-] 44.7 µM [inhibitor, single point]
CC(C)NC(=S)N/N=C/c1sc(N2CCCCC2)nc1-c1cccs1 39.8 µM [inhibitor, single point]
O=C(C1CCCN(S(=O)(=O)c2ccccc2)C1)N1CCN(c2ncccn2)CC1 (stereo not given) 22.4 µM [inhibitor, partial curve]
Nc1cccc2c1C(=O)N(C(=O)/C=C/c1cccc(Br)c1)C2=O 44.7 µM [inhibitor, single point]
N#Cc1nc(-c2ccc(F)cc2)oc1NCc1ccccc1 28.2 µM [inhibitor, partial curve]
CCOC(=O)N1CCN(C(=O)c2cnn(-c3ccccc3)c2NC(=O)c2ccccc2F)CC1 2.24 µM [inhibitor, full curve]
Cc1ccc(C(=O)N/N=c2\sc3ccccc3n2C)cc1 37.7 µM [inhibitor, partial curve, poor fit]
CCOc1ccc(-c2cc(C)n3nc(C(N)=O)cc3n2)cc1 22.4 µM [inhibitor, partial curve]
O=C(COc1ccc(Cl)cc1)N1CCN(C(=O)c2cccs2)CC1 3.98 µM [inhibitor, full curve]
O=C(NC(=S)Nc1ccccc1N1CCOCC1)c1ccco1 22.4 µM [inhibitor, partial curve]
CCCn1c(=O)c2ccccc2n2c(SCc3cc(=O)oc4ccc5ccccc5c34)nnc12 28.2 µM [inhibitor, partial curve]
O=S(=O)(c1cccc(-c2cn3cccnc3n2)c1)N1CCOCC1 25.1 µM [inhibitor, partial curve]
Cn1c(SCC(=O)c2ccc(F)cc2)nnc1-c1cnccn1 39.8 µM [inhibitor, single point]
COc1ccc(NC(=O)Cn2cnc3c(cnn3-c3ccc(C)c(C)c3)c2=O)c(OC)c1 20 µM [inhibitor, partial curve]
O=C(ONc1ccc(N=NC(=O)c2ccccc2O)cc1)c1ccccc1 35.5 µM [inhibitor, single point]
Cc1ccsc1C1NC(=O)c2ccccc2N1 (stereo not given) 31.6 µM [inhibitor, partial curve]
COc1ccc(N2CCN(CCNC(=O)CCS(=O)(=O)c3cccc4nsnc34)CC2)cc1 39.8 µM [inhibitor, single point]
COc1ccc(CSCC(=O)NN=C2CCN(C)CC2)cc1 28.2 µM [inhibitor, single point]
Oc1ccc2ccccc2c1N=Nc1ccccn1 10 µM [inhibitor, partial curve]

activity, negative = inhibition, inactive:
CCOC(=O)c1ccc(NC(=O)CCOc2ccccc2)cc1 -11.4%
O=S1(=O)CCN(OCc2ccc(F)cc2Cl)CC1 6.28%
CC1CCN(c2nc(CN3CCCCC3)nc3scc(-c4ccccc4)c23)CC1 -10.5%
Cc1cccc(OCCNc2nc3c(c(=O)n(C)c(=O)n3C)n2C)c1 -20.9%
Cc1nn(C(C)C(=O)NCC2CCCO2)c(C)c1[N+](=O)[O-] (stereo not given) 6.61%
COc1cccc(/C=N/NC(=O)CNC(=O)C2COc3ccccc3O2)c1O (stereo not given) -1.03%
O=C(C1CC(c2ccccc2O)=NO1)N1CCc2ccccc2C1 (stereo not given) -2.79%
CCCSc1nnc(CNC(=O)C23CC4CC(CC(C4)C2)C3)n1Cc1ccccc1 2.74%

Reference: PubChem BioAssay AID1030 (National Center for Advancing Translational Sciences (NCATS), 2008)
